Self-cleavage data for 167 variants are collected here from the RNAGym collection of RNA variant scans (doi:10.7554/elife.90254).

To fix the notation:
B1: LINE1-mini (parent)
chain: GGCAGAGCUCAACACAGCGUGGCAAAGUGGCUGUGGCUAGACUGCC

Read counts are not given, so values of variants with three or more changes are uncertain.

The variants in this series derive from B1. The series can be described thus: self-cleavage, relative activity (ratio to wild type); higher = more cleavage; in vitro, sequencing; the parent is a self-cleaving ribozyme.
On to G2C C13U U20G, for which the self-cleavage was determined as 0.01.

Consider G2C G33C U34C G44U, for which the self-cleavage was determined as 0.02.

G2C G5U C10G C15G A39C: the self-cleavage was determined as 0.

For G2C U9C G35U C46U, the self-cleavage is 0.03.

Regarding G2U A6C C18U A24U C37G, the self-cleavage was 0.01.

In the case of G2C G22A G33U C37A, the self-cleavage turned out to be 0.06.

As for G2C C13A G29U U32G, the self-cleavage amounted to 0.07.

Consider G2C G19U C23A A26U G30U, for which the self-cleavage was 0.05.

Turning to G2C G5A C18A G19C C46U, the self-cleavage was determined as 0.06.

As to G2C G7A G19U U43A, the self-cleavage was 0.2.

For the variant G2C C18U C37A, the self-cleavage is 0.21.

For the variant G2C U20G G22C G36C G44C, the self-cleavage turned out to be 0.02.

For G2C C18U G22U G35U C37G, the self-cleavage was 0.05.

Consider G2C U9G C15G U32C, for which the self-cleavage is 0.01.

For G2C C23A C37A, the self-cleavage was 0.36.

As for G2C G17A U28C A39C G40U U43G, the self-cleavage stood at 0.02.

Regarding G2C G40U C46U, the self-cleavage was 0.29.

G2C G5C C18A G35C: the self-cleavage turned out to be 0.02.

Turning to G2C G22C G35U G44C, the self-cleavage is 0.02.

In the case of G2C G5U C18A C37U, the self-cleavage turned out to be 0.

Take G2C C13G C31G G40A: the self-cleavage is 0.03.

For the variant G2U A4C C13U G27A U28A G36A A39G, the self-cleavage worked out at 0.03.

For G2C G33C C42A C45U, the self-cleavage worked out at 0.06.

Consider G2C G5C A39C, for which the self-cleavage amounted to 0.03.

Consider G2C G17C G19U, for which the self-cleavage came out at 0.27.

Take G2C U9A A12G G19C G40A: the self-cleavage came to 0.01.

For the variant G2C C18U G30U U38A, the self-cleavage came to 0.01.

Take G2C U9A C42A C46A: the self-cleavage is 0.14.

Turning to G2U A4U G27A, the self-cleavage amounted to 0.01.

Regarding G2C C31U G36U, the self-cleavage worked out at 0.07.

As for G2C C13U A25U G27A, the self-cleavage worked out at 0.27.

With G2C C10G C15A G17C A26G, the self-cleavage stood at 0.01.

Turning to G2C U20G G21U A26U U28A G36A, the self-cleavage was found to be 0.04.

As for G2C C18G A26U, the self-cleavage stood at 0.14.

With G2C G7U G19U G22A G35A, the self-cleavage turned out to be 0.11.

G2C G5A A24U A41U: the self-cleavage worked out at 0.03.

Consider G2C C18U G19C A39G, for which the self-cleavage was determined as 0.15.

For G2C C8U A39U, the self-cleavage came to 0.06.

As for G2C G7A C15G U20C A41G C42G, the self-cleavage worked out at 0.16.

Take G2C U20G G21U C42U: the self-cleavage was 0.1.

In the case of G2C G30A G36U C42G, the self-cleavage came to 0.15.

On to G2C G19A C23G U38G A39G, for which the self-cleavage is 0.02.

With G2C C15A G19C A25G C31U G40U, the self-cleavage came to 0.14.

For the variant G2C G21C G29C U43A, the self-cleavage came to 0.01.

G2C G7A G19A: the self-cleavage is 0.05.

Turning to G2C C15U G29A U34A, the self-cleavage came to 0.27.

As for G2U A6U A11G A26U U38G A39G, the self-cleavage stood at 0.

On to G2C U20G U34G, for which the self-cleavage was determined as 0.01.

In the case of G2C G7U C46G, the self-cleavage is 0.03.

Consider G2C U20G A25C G33A C46A, for which the self-cleavage is 0.02.

For G2C C15A A24U C31A, the self-cleavage was 0.01.

For the variant G2C C18U A24U A39C G44C, the self-cleavage was determined as 0.04.

Consider G2C G7U G29U U32A G35C G36C C45G, for which the self-cleavage is 0.06.

Regarding G2U A6C C10A C37A, the self-cleavage stood at 0.

As to G2C G5U C13G G17A G22U, the self-cleavage is 0.02.

As for G2C C15A U28A, the self-cleavage was determined as 0.04.

In the case of G2C C8U G17A C31A U38C, the self-cleavage turned out to be 0.07.

Consider G2C C15A C45G, for which the self-cleavage is 0.12.

For the variant G2C G5U A14U G21U, the self-cleavage came out at 0.02.

For the variant G2U A4U A6G A14G G17A G29U G30A, the self-cleavage was determined as 0.03.

Take G2U A4U A14G G17C: the self-cleavage was determined as 0.02.

For the variant G2C C18A C37G G40C C42U C46U, the self-cleavage was found to be 0.21.

For G2C C18A G36U, the self-cleavage is 0.02.

As to G2C G5U C8A A12C G21U, the self-cleavage is 0.02.

For G2C G19U G22U, the self-cleavage came out at 0.23.

For G2C G21C G29U G35U, the self-cleavage was found to be 0.

Regarding G2C C13U C15A C18A A24U, the self-cleavage came out at 0.46.

Turning to G2C C13A A39U, the self-cleavage was determined as 0.24.

For the variant G2C G5C C46A, the self-cleavage came out at 0.03.

For G2U A4C A6U C8G A11U, the self-cleavage worked out at 0.01.

For G2C G29U C31A G44U, the self-cleavage was 0.19.

As for G2C G35U A39G, the self-cleavage turned out to be 0.06.

As for G2C C31U C42G, the self-cleavage was 0.03.

For the variant G2C G5U U34A, the self-cleavage was 0.04.

In the case of G2C C15G G17C U32G, the self-cleavage was determined as 0.03.

In the case of G2C C15A G21U, the self-cleavage is 0.03.

As to G2C G17U C18A, the self-cleavage was found to be 0.07.

For the variant G2C G7A G17C A26U G29C, the self-cleavage amounted to 0.31.

On to G2C C13U C31A, for which the self-cleavage amounted to 0.13.

As for G2C U38G A39G, the self-cleavage is 0.02.

For G2C G17U G19U U32G, the self-cleavage is 0.3.

On to G2C U9G U32G C42A, for which the self-cleavage came to 0.

For the variant G2U A6C A16U C31A, the self-cleavage amounted to 0.03.

Regarding G2C G22A G30A C42U, the self-cleavage turned out to be 0.11.

Take G2C U28A U32G: the self-cleavage was found to be 0.02.

On to G2C U20G C31A A39U U43A, for which the self-cleavage turned out to be 0.05.

Regarding G2C G35C A39G, the self-cleavage was determined as 0.05.

For G2C C18G G33U U43G, the self-cleavage is 0.01.

With G2C G7A G17A, the self-cleavage is 0.06.

In the case of G2U A6G G19C U28G C37U, the self-cleavage was 0.01.

In the case of G2C U28A G36U A39U, the self-cleavage turned out to be 0.07.

Take G2C U20G G30A: the self-cleavage was 0.06.

With G2C C15A U38G, the self-cleavage stood at 0.04.

In the case of G2C C10A A12G G22C, the self-cleavage amounted to 0.

For the variant G2C G7C C10G U38C, the self-cleavage turned out to be 0.01.

As for G2C C18G C31U, the self-cleavage stood at 0.04.

For the variant G2C G21C C45U, the self-cleavage came to 0.28.

As to G2C C8U G29U, the self-cleavage was 0.23.

For the variant G2C G36A C46U, the self-cleavage worked out at 0.04.

As to G2C C18G G29A, the self-cleavage was determined as 0.21.

As for G2C G5A A25G A39U C46G, the self-cleavage was found to be 0.21.

On to G2C G29C G30A G36A C46G, for which the self-cleavage is 0.13.

Regarding G2C G19A U34C A41C C45U, the self-cleavage was determined as 0.02.

With G2C G5C U20G C23U, the self-cleavage stood at 0.04.

As for G2C C10A G36U G44C, the self-cleavage was found to be 0.05.

Take G2U A4U U20A U32G: the self-cleavage was 0.06.

As for G2C U9A U20C G35U, the self-cleavage turned out to be 0.18.

G2C G21U G44A: the self-cleavage was found to be 0.2.

Regarding G2C G17C G19C G44A C45U, the self-cleavage is 0.3.

G2U A4U C8G G21C G29U G30A: the self-cleavage was 0.06.

Take G2U A4C G5C C13U G22C: the self-cleavage worked out at 0.17.

As to G2C G33C G36C, the self-cleavage amounted to 0.01.

G2U A4G C10U G40U: the self-cleavage came out at 0.05.

Regarding G2U A6G A16C U32C, the self-cleavage amounted to 0.01.

On to G2C G22U G33C, for which the self-cleavage was 0.04.

In the case of G2C G27C C31U, the self-cleavage worked out at 0.06.

G2C C10A G30U: the self-cleavage amounted to 0.03.

As to G2C G21C C23U A26U G33C C42U, the self-cleavage came to 0.02.

Turning to G2C G35U G36A, the self-cleavage was 0.15.

For the variant G2U A4U C13G A26G, the self-cleavage is 0.11.

In the case of G2C U9C A25G, the self-cleavage stood at 0.01.

Consider G2C G29A C45U, for which the self-cleavage is 0.15.

Regarding G2U A4C C13G, the self-cleavage was 0.15.

For the variant G2C U20C C23U G29C, the self-cleavage was determined as 0.04.

Take G2C C10A G21U: the self-cleavage came out at 0.05.

As to G2C C10A G21U C23A U34G, the self-cleavage worked out at 0.01.

Consider G2C C15A G27A G33C G35U G44A, for which the self-cleavage worked out at 0.02.

Take G2C G27A U38A C42G: the self-cleavage turned out to be 0.08.

In the case of G2C G22U G35A G44A, the self-cleavage worked out at 0.02.

Turning to G2C C10G G36A A39G C42G, the self-cleavage was 0.01.

As for G2C G35C C46U, the self-cleavage stood at 0.18.

Regarding G2C C18U G29U C31U U38C G44A, the self-cleavage came to 0.04.

For G2C C10A A26C A41U C42A, the self-cleavage turned out to be 0.01.

For the variant G2C C15U C37G A41G C42G, the self-cleavage is 0.02.

As for G2C C15G G36C C46G, the self-cleavage stood at 0.01.

Take G2U A4G C10G G35U: the self-cleavage was determined as 0.03.

G2C C13U C18U A26C: the self-cleavage amounted to 0.01.

In the case of G2C G17C C23G, the self-cleavage came to 0.04.

Regarding G2C G29C G40U, the self-cleavage worked out at 0.02.

G2C C15G G17A C23U C37A C46A: the self-cleavage turned out to be 0.05.

On to G2C C15G A26C G40A C45A, for which the self-cleavage is 0.01.

With G2C U9C C15G U20G G27U, the self-cleavage came to 0.07.

G2C G7A C8A G19C C23G A24U G27A G36C: the self-cleavage is 0.16.

Consider G2C G7U C13A, for which the self-cleavage was determined as 0.14.

In the case of G2C C10U G19C, the self-cleavage was 0.02.

For the variant G2C G40U C42U, the self-cleavage was determined as 0.03.

Regarding G2C C13U G17C C18U G27C, the self-cleavage turned out to be 0.11.

Consider G2C G5A G30A G36C, for which the self-cleavage turned out to be 0.15.

Regarding G2C G21C U28G, the self-cleavage turned out to be 0.02.

Regarding G2C C23A A26C G36A U38G, the self-cleavage was found to be 0.02.

As to G2C G27U U43G C45U, the self-cleavage was 0.01.

In the case of G2C G7U G17C A25U U34A, the self-cleavage amounted to 0.01.

As to G2C G5A C10A A26C, the self-cleavage amounted to 0.02.

Regarding G2C U9A A26C G40A G44A, the self-cleavage is 0.1.

As to G2U A6C A14U A25C, the self-cleavage came out at 0.01.

On to G2C G5U C10G U32G U34C, for which the self-cleavage came to 0.

For the variant G2C C23G A25C, the self-cleavage came to 0.12.

Regarding G2C G30A A39G C45A, the self-cleavage turned out to be 0.02.

In the case of G2C U9A C31G G36A, the self-cleavage was found to be 0.08.

Turning to G2C C23U G40A U43G, the self-cleavage was 0.01.

With G2C C10A C15G G22U C31G, the self-cleavage was found to be 0.02.

G2C G5A A11G C13A G17A G35C A39G U43C: the self-cleavage turned out to be 0.

In the case of G2U A6G C10U G33C, the self-cleavage is 0.

On to G2C C10G C18U G33A C45U, for which the self-cleavage turned out to be 0.01.

Consider G2C G5C C8U U9G, for which the self-cleavage worked out at 0.04.

In the case of G2C G17A G40U, the self-cleavage worked out at 0.02.

In the case of G2C U28C G33U A39C, the self-cleavage turned out to be 0.
